Assay results taken from patent US20210324028A1 (Pfizer, published 2021).

T1: human IL-2Rβ (human, UniProt P14784 27-240, limits assumed)
T1 construct: also called hIL-2Rβ; IL-2 receptor beta
T1 sequence (looked up): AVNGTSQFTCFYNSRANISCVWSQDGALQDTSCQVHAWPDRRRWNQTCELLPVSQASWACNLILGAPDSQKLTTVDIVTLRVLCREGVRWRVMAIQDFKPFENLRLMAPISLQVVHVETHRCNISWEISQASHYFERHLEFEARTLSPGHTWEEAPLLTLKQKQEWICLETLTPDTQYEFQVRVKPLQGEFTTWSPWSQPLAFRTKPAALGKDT

T2: mouse PD-1 on doxycycline-induced 32D[pRF770+pRF791] cells (mouse, UniProt Q02242 25-288)
T2 sequence (looked up): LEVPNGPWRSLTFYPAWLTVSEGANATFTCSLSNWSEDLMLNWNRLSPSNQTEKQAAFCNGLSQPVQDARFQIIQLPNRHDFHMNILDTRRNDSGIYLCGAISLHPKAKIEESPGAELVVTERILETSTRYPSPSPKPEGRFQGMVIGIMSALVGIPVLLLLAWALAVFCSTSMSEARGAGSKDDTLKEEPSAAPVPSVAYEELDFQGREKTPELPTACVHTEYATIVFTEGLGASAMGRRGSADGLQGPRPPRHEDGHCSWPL

T3: IL-15 signaling receptor on 32D[pRF770+pRF791] cells (human CD122 plus mouse CD132) (human; mouse, UniProt P14784 27-551; P34902 23-369)
T3 sequence (looked up) 1: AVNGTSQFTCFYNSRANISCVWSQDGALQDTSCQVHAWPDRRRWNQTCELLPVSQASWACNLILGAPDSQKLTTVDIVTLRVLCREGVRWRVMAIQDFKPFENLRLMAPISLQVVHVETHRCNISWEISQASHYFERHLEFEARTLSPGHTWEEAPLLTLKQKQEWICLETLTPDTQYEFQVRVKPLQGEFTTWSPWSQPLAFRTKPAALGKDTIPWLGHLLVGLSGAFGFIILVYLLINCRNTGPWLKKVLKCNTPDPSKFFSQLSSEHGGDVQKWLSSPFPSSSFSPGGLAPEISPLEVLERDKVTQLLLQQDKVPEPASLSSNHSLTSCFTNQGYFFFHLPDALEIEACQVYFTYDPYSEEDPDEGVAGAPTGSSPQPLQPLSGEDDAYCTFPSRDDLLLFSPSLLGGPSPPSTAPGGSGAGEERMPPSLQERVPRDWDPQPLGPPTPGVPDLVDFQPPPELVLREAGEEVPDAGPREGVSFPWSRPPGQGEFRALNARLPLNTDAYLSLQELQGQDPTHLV
T3 sequence (looked up) 2: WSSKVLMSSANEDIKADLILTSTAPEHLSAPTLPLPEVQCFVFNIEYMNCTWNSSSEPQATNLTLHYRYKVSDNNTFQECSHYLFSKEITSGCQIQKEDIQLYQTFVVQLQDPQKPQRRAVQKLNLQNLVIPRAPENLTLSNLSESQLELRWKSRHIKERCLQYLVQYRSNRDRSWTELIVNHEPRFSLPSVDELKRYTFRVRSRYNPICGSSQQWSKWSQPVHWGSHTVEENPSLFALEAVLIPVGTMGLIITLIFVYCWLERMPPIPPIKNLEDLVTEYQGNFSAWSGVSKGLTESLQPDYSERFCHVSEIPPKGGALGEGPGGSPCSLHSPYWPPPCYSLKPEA

B1: xmPD-1-hIL15 V49R/E93Q (other)
heavy 1: HHHHHHHHGGGGSGSGGEVQLVESGGGLVKPGGSLELSCAASGFTFSSYWMSWVRQAPEKGLEWVAAISPSGGSTYYADSVKGRFTISRDNAKNTLFLQMTSLRSEDTAMYYCAKESWGAYYDLWGQGTTVTVSSASTKGPSVFPLAPCSRSTSESTAALGCLVKDYFPEPVTVSWNSGALTSGVHTFPAVLQSSGLYSLSSVVTVPSSNFGTQTYTCNVDHKPSNTKVDKTVERKCRVRCPRCPAPPVAGPSVFLFPPKPKDTLMISRTPEVTCVVVAVSHEDPEVQFNWYVDGVEVHNAKTKPREEQFNSTFRVVSVLTVVHQDWLNGKEYKCKVSNKGLPSSIEKTISKTKGQPREPQVYTLPPSREEMTKNQVSLTCLVKGFYPSDIAVEWESNGQPENNYKTTPPMLDSDGSFFLYSRLTVDKSRWQQGNVFSCSVMHEALHNHYTQKSLSLSPGK
heavy 2: EVQLVESGGGLVKPGGSLELSCAASGFTFSSYWMSWVRQAPEKGLEWVAAISPSGGSTYYADSVKGRFTISRDNAKNTLFLQMTSLRSEDTAMYYCAKESWGAYYDLWGQGTTVTVSSASTKGPSVFPLAPCSRSTSESTAALGCLVKDYFPEPVTVSWNSGALTSGVHTFPAVLQSSGLYSLSSVVTVPSSNFGTQTYTCNVDHKPSNTKVDKTVERKCEVECPECPAPPVAGPSVFLFPPKPKDTLMISRTPEVTCVVVAVSHEDPEVQFNWYVDGVEVHNAKTKPREEQFNSTFRVVSVLTVVHQDWLNGKEYKCKVSNKGLPSSIEKTISKTKGQPREPQVYTLPPSREEMTKNQVSLTCEVKGFYPSDIAVEWESNGQPENNYKTTPPMLDSDGSFFLYSKLTVDKSRWQQGNVFSCSVMHEALHNHYTQKSLSLSPGSGGGGGTSATATPGA[about 120 residues with changes left out here]
light: DIVMTQSPSSLSVSAGDKVTMSCRASQGISSWLAWYQQKPWQPPKLLIYKASTLESGVPDRFTGSGSGTDFTLTISSVQAEDLAVYYCQQSYSTPWTFGGGTKLEIKGTVAAPSVFIFPPSDEQLKSGTASVVCLLNNFYPREAKVQWKVDNALQSGNSQESVTEQDSKDSTYSLSSTLTLSKADYEKHKVYACEVTHQGLSSPVTKSFNRGEC
notes: not restated for this mutant
B2: xmPD-1-hIL15 V49R/E53Q (other)
heavy 1: B1 heavy 1
heavy 2: EVQLVESGGGLVKPGGSLELSCAASGFTFSSYWMSWVRQAPEKGLEWVAAISPSGGSTYYADSVKGRFTISRDNAKNTLFLQMTSLRSEDTAMYYCAKESWGAYYDLWGQGTTVTVSSASTKGPSVFPLAPCSRSTSESTAALGCLVKDYFPEPVTVSWNSGALTSGVHTFPAVLQSSGLYSLSSVVTVPSSNFGTQTYTCNVDHKPSNTKVDKTVERKCEVECPECPAPPVAGPSVFLFPPKPKDTLMISRTPEVTCVVVAVSHEDPEVQFNWYVDGVEVHNAKTKPREEQFNSTFRVVSVLTVVHQDWLNGKEYKCKVSNKGLPSSIEKTISKTKGQPREPQVYTLPPSREEMTKNQVSLTCEVKGFYPSDIAVEWESNGQPENNYKTTPPMLDSDGSFFLYSKLTVDKSRWQQGNVFSCSVMHEALHNHYTQKSLSLSPGSGGGGGTSATATPGA[about 120 residues with changes left out here]
light: B1 light
notes: not restated for this mutant
B3: xmPD-1-hIL15 V49R (other)
heavy 1: B1 heavy 1
heavy 2: EVQLVESGGGLVKPGGSLELSCAASGFTFSSYWMSWVRQAPEKGLEWVAAISPSGGSTYYADSVKGRFTISRDNAKNTLFLQMTSLRSEDTAMYYCAKESWGAYYDLWGQGTTVTVSSASTKGPSVFPLAPCSRSTSESTAALGCLVKDYFPEPVTVSWNSGALTSGVHTFPAVLQSSGLYSLSSVVTVPSSNFGTQTYTCNVDHKPSNTKVDKTVERKCEVECPECPAPPVAGPSVFLFPPKPKDTLMISRTPEVTCVVVAVSHEDPEVQFNWYVDGVEVHNAKTKPREEQFNSTFRVVSVLTVVHQDWLNGKEYKCKVSNKGLPSSIEKTISKTKGQPREPQVYTLPPSREEMTKNQVSLTCEVKGFYPSDIAVEWESNGQPENNYKTTPPMLDSDGSFFLYSKLTVDKSRWQQGNVFSCSVMHEALHNHYTQKSLSLSPGKGGGGRTSATATPGA[about 120 residues left out here]
light: B1 light
notes: not restated for this mutant; also called xmPD-1-hIL-15V49R fusion; xmPD-IL15 V49R

Tests used:
[1] = molecular target: T4, human IL-15Rα (human, UniProt Q13261 31-205, limits assumed); assay: SPR, steady state, fusion captured
T4 construct: also called hIL-15Rα; IL-15 receptor alpha
Protocol: (§1) Anti-human Fc sensor chips were prepared at 25° C. with a running buffer of 10 mM HEPES, 150 mM NaCl, 0.05% (v/v) Tween-20, pH 7.4. All surfaces of a Biacore CM4 sensor chip were activated with a 1:1 (v/v) mixture of 400 mM EDC and 100 mM NHS for 7 minutes, at a flow rate of 10 μL/min. An anti-human Fc reagent (Goat anti-human IgG Fc-γ specific, SouthernBiotech, Birmingham, Ala., Catalog #2014-01) was diluted to 50 μg/mL in 10 mM sodium acetate (pH 4.5) and injected on all flow cells for 7 minutes at 20 μL/min. All flow cells were blocked with 100 mM ethylenediamine in 200 mM Borate buffer pH 8.5 for 7 minutes at 10 μL/min.
(§2) All protein interaction experiments were performed at 37° C. using a running buffer of 10 mM HEPES, 150 mM NaCl, 0.05% (v/v) Tween-20, pH 7.4, 1 mg/mL BSA. Anti-PD-1-hIL-15 fusion proteins were captured at 10 μg/mL at a flow rate of 10 μL/min for 2 minutes. Different fusion proteins were captured in flow cells 2, 3 and 4. No protein was captured onto flow cell 1 which was used as a reference surface. […] After each analyte injection, dissociation was monitored for 5 minutes followed by regeneration of all flow cells with three 60-second injections of 75 mM phosphoric acid. […] For kinetic analysis, the double-referenced sensorgrams were fit globally to a simple 1:1 Langmuir with mass transport binding model using Biacore T200 Evaluation Software version 2.0. For steady-state affinity analysis, the double-referenced equilibrium binding responses were fit with a 1:1 Langmuir steady-state model using Biacore T200 Evaluation Software version 2.0.

[2] = molecular target: T1, human IL-2Rβ; assay: SPR, steady state, fusion captured
Protocol: as §1, §2

[3] = molecular target: T4, human IL-15Rα; assay: SPR, fusion captured
Protocol: as §1
as §2, with “For steady-state affinity analysis, the double-referenced equilibrium binding responses were fit with a 1:1 Langmuir steady-state model using Biacore T200 Evaluation Software version 2.0.” left out

[4] = molecular target: T2, mouse PD-1 on doxycycline-induced …; assay: cell-based or functional assay
[5] = molecular target: T3, IL-15 signaling receptor on …; assay: cell-based or functional assay
[6] = molecular target: T2, mouse PD-1 on doxycycline-induced …; assay: cell-based or functional assay; remark: listed apart in the source
[7] = molecular target: T3, IL-15 signaling receptor on …; assay: cell-based or functional assay; remark: listed apart in the source
[8] = molecular target: T2, mouse PD-1 on doxycycline-induced …; assay: cell-based or functional assay; remark: listed apart in the source
[9] = molecular target: T3, IL-15 signaling receptor on …; assay: cell-based or functional assay; remark: listed apart in the source

T4 sequence (Q13261 31-205 limits assumed): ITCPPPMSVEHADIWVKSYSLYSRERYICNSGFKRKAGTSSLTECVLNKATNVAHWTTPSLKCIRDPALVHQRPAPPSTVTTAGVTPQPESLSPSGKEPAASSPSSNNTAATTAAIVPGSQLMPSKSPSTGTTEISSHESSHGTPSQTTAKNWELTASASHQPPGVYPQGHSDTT

| Binder | Kd [1] [nM] | Kd [2] [nM] | Kd [3] [nM] | Fold change = EC50 (PD-1(low))/EC50 (PD-1+) [4] [fold] | pSTAT5 EC50 on PD-1+ 32D reporter cells [4] [pM] | pSTAT5 EC50 on PD-1(low) 32D reporter cells [5] [nM] | Fold change = EC50 (PD-1(low))/EC50 (PD-1+) [6] [fold] | pSTAT5 EC50 on PD-1+ 32D reporter cells [6] [pM] | pSTAT5 EC50 on PD-1(low) 32D reporter cells [7] [nM] | Fold change = EC50 (PD-1(low))/EC50 (PD-1+) [8] [fold] | pSTAT5 EC50 on PD-1+ 32D reporter cells [8] [nM] | pSTAT5 EC50 on PD-1(low) 32D reporter cells [9] [nM] |
| --- | --- | --- | --- | --- | --- | --- | --- | --- | --- | --- | --- | --- |
| B1 | 943 | 451 | – | – | – | – | – | – | – | – | – | – |
| B2 | – | 590 | > 1500 | – | – | – | – | – | – | – | – | – |
| B3 | 119 | 494 | – | 5.89 | 55.7 | 0.328 | 27.6 | 54.8 | 1.51 | 26.8 | 0.163 | 4.38 |

Read-outs that look alike come from different tables or passages of the source.
